{"source": "PubChem BioAssay (NCATS)", "note": "Where “and” joins values, the source holds several entries; their conditions need not be identical. Equal values may be shown once. The shares of active, inactive and inconclusive entries below differ from those in the screen. Potencies of inconclusive entries are doubtful fits and often do not repeat. Calls of active or inactive are those of the source. Calls follow the shape of the dose curve; as a rule, active = well fitted activation curve with a large enough effect; inconclusive = small, poorly fitted or top-dose-only effect; inactive = no such curve, though single readings can be large or run the other way. Potency is read from the fitted curve at half-maximal effect; tags tell the direction and shape of the fitted curve.", "data": [{"molecular_target": "Cellular tumor antigen p53 (Homo sapiens) (UniProt P04637)", "sequence (P04637 whole entry, looked up)": "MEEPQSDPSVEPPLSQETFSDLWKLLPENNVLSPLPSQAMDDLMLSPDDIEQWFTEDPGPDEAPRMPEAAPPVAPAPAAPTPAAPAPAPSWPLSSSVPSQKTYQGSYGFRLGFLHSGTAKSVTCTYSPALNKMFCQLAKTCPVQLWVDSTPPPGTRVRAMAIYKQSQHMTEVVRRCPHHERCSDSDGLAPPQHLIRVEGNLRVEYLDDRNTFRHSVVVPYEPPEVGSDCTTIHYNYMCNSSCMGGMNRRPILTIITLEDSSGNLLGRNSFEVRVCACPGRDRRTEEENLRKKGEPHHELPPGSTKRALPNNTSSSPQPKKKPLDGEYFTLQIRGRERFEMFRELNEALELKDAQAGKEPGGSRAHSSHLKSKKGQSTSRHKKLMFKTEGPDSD", "assay": "Primary qHTS for small molecule compounds that upregulate eGFP-tagged delta133p53alpha (in N-terminal) cells. (AID 2060322);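 also: cells pre-induced with doxycycline then dosed without doxycycline; nearly all actives have a fitted effect of over 75% in size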;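 as to activation: series mostly up to about 56 µM; 0% = DMSO vehicle and 100% = reference activator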", "details": "NCI-H358 eGFP-delta133p53alpha fluorescence, 24 h; activation: stronger effect = higher value", "description": "Assay Development and Screening Technology\nNational Center for Advancing Translational Sciences (NCATS),\nNational Institute of Health (NIH), Rockville, Maryland\nCellular senescence (CS) is one of the hallmarks of aging and age-related diseases. Senescent cells are characterized by an irreversible growth arrest, an increase in senescence-associated beta-galactosidase (SA-beta-gal) activity and p16INK4a expression, an activation of the DNA damage response pathways, and the emergence of a senescence-associated secretory phenotype (SASP).\nDelta133p53alpha, a human/primate-specific p53 protein isoform, delays or inhibits the induction of CS and SASP in various types of human cells, including progeria-derived fibroblasts, primary normal astrocytes, and CD8+ T lymphocytes. Induction of delta133p53alpha with small molecule compounds may provide therapeutic opportunities for inhibition of senescence/SASP-associated pathologies in progeria syndromes, astrocyte-mediated neuroprotection in neurodegenerative diseases, and possibly prevention and treatment of a wider range of senescence- and aging-associated diseases.\nHere we report the development and validation of a cell-based quantitative high throughput screening (qHTS) assay in 1,536-well format. This qHTS assay uses the NCI-H358 cell line with doxycycline-inducible expression of enhanced green fluorescent protein (eGFP)-tagged delta133p53alpha, which allows efficient and highly quantitative measurement of the protein levels.\nPROTOCOL TABLE (as described by Inglese J, Shamu CE and Guy RK. 2007)\nSEQUENCE No. (e.g., 1, 2, 3, etc.); […] (e.g., Cells, Incubation, Reagent, etc.); VALUE; DESCRIPTION.\n1; Cells; 4uL; 800 doxycycline treated cells / well in doxycycline-free media, 1536-well black, clear-bottom low base Aurora microplates.\n2; Compounds; 23 nL; Kalypsis pin tool (Wako) equipped with 1536-well pin heads, 5-azacytidine positive control.\n3; Incubation; 24 hr; 37C, 5% CO2; 95% relative humidity.\n4; Aspiration; 1x; BioTek EL406 washer dispenser (Agilent).\n5; Fixing; 3.5% paraformaldehyde, BioTek EL406 washer dispenser (Agilent).\n6; Washing; 1x PBS; BioTek EL406 washer dispenser (Agilent).\n7; Nuclei staining; 1:1000 dilution of Hoechst 33342 (Thermofisher), BioTek EL406 washer dispenser (Agilent).\n8; Incubation; 20 min; in the dark at room temperature.\n9; Washing; 2x, 1x PBS (ThermoFisher), BioTek EL406 washer dispenser (Agilent).\n10; Reagent; 10 uL; 1x PBS per well, sealed with clear adhesive tape.\nNOTES (numbers refer to sequence numbers above).\n1. NCI-H358 cells expressing eGFP-tagged delta133p53alpha were grown in T75 culture flasks and treated with doxycycline for 24h, at 10 ng/ml for eGFP-D133p53a cells (N-terminal cell) and 100 ng/ml for D133p53a-eGFP cells (C-terminal cells). Cells were trypsinized, counted using a Counted 3 Automated Cell Counter (Thermo Fisher), and diluted to a concentration of 200,000 cells/ml. A Multidrop Combi Reagent Dispenser (ThermoFisher) was used to dispense 800 cells/well in […] of doxycycline-free media, into 1536-well black/clear bottom low base plates (AuroraMicroplates).\n2. After plating cells, 23 nl of compound library, DMSO vehicle control or positive control (5-azacytidine) were transferred by Pin Tool (Wako). The plate map layout was the same for each plate: (column 1) non-doxycycline treated cells + DMSO vehicle control; (column 2) doxycycline treated cells + DMSO vehicle control baseline; (column 3) doxycycline treated cells + positive control 57.5 uM final concentration 5-azacytidine; (column 4) doxycycline treated cells + serial dilution of 5-azacytidine, 16-point 1:2 titration spanning 1.8 nM to […] final concentration; (columns 5-48) doxycycline treated cells + titration of library compounds.\n3. Cells were incubated at 37 °C, 5 % CO2, 95% RH with breathable metal lid for 24h.\n4-10. […] After two washes, 10 ul of 1X PBS (Thermo Fisher) was dispensed to each well. Clear adhesive plate seals (VWR) were applied and plates stored at 4 °C.\n11. […]", "values": [{"smiles": "C=C1C(=O)OC2C3=C(C)C(=O)CC3C(C)CC(O)C12", "note": "(stereo not given)", "Potency": "inconclusive: 37.9 µM [activator, single point]"}, {"smiles": "CC(=O)NC1=NN(C(C)=O)C(C)(c2ccccc2)S1", "note": "(stereo not given)", "Potency": "active: 12 µM"}, {"smiles": "N#Cc1cc(F)cc(-c2nc(-c3ccccn3)no2)c1", "activation": "inactive: -12.4%"}, {"smiles": "C[C@H](Oc1cc(-n2cnc3ccc(CN4CCN(C)CC4)cc32)sc1C(N)=O)c1ccccc1C(F)(F)F", "Potency": "inconclusive: 0.953 µM [activator, full curve]"}, {"smiles": "O=C(/C=C\\n1cnc(-c2cc(C(F)(F)F)cc(C(F)(F)F)c2)n1)N1CC(F)(F)C1", "Potency": "inconclusive: 33.8 µM [activator, single point]"}, {"smiles": "C[N+]1(CC2COC(c3ccccc3)(c3ccccc3)O2)CCCCC1", "note": "(stereo not given)", "Potency": "inconclusive: 0.294 µM [activator, full curve, poor fit]"}, {"smiles": "O=C(O)CCC(=O)Nc1ccc(S(=O)(=O)Nc2nccs2)cc1", "activation": "inactive: -3.95%"}, {"smiles": "Nc1ccc(C(=O)c2cc3c(ccc4ccccc43)[nH]2)cc1", "Potency": "inconclusive: 1.72 µM [activator, full curve]"}, {"smiles": "COc1cc2nccc(Oc3ccc(NC(=O)Nc4cc(C)on4)c(Cl)c3)c2cc1OC", "Potency": "active: 30.6 µM and active: 21.3 µM"}, {"smiles": "COc1ccc(C(=O)OC2C3C=COC(OC4OC(CO)C(O)C(O)C4O)C3C3(CO)OC23)cc1OC", "note": "(stereo not given)", "Potency": "inconclusive: 4.15 µM [activator, single point]"}, {"smiles": "CCC(Sc1nnc2c(n1)[nH]c1ccccc12)C(=O)N1c2ccccc2Sc2ccccc21", "note": "(stereo not given)", "activation": "inactive: 12.3%"}, {"smiles": "CC1(C)CCC(NC(=O)[C@@H](N)CCC(=O)O)CC1", "activation": "inactive: -8.15%"}, {"smiles": "Cc1ccc(N2CCN(S(=O)(=O)N3CCCCC3)CC2)c(C)c1", "activation": "inactive: 17.9%"}, {"smiles": "NNCCc1ccccc1", "activation": "inactive: 11.9% and inactive: 3.32% and inactive: -5.28%"}, {"smiles": "CCN(CC)Cc1cccc(/C=C/c2nc3ccc(F)cc3c(=O)n2-c2ccccc2Cl)n1", "Potency": "inconclusive: 30.1 µM [activator, partial curve, poor fit]"}, {"smiles": "COc1cc(OC)c(/C=C2/C(=O)Nc3ccccc32)c(OC)c1", "Potency": "inconclusive: 4.78 µM [activator, single point]"}, {"smiles": "O=C(NCCCCN1CCN(c2cccc(Cl)c2Cl)CC1)c1cc2ccccc2s1", "Potency": "inconclusive: 37.9 µM [activator, single point]"}, {"smiles": "C=CC(=O)Nc1cccc(Nc2nc(Nc3ccc(Oc4ccnc(C(=O)NC)c4)cc3)ncc2F)c1", "Potency": "active: 4.26 µM"}, {"smiles": "N[C@@H](Cc1cnc[nH]1)C(=O)O", "activation": "inactive: 30.1%"}, {"smiles": "C=C1C(=O)O[C@@H]2C[C@@]3(C)CCCC(=C)[C@]3(O)C[C@H]12", "Potency": "inconclusive: 6.01 µM [activator, full curve]"}, {"smiles": "S=C(S)N1CCCC1", "Potency": "inconclusive: 3.38 µM [activator, single point]"}, {"smiles": "Cc1ccc(NC(=O)Nc2cc(C(F)(F)F)ccc2F)cc1Nc1ccc2c(c1)NC(=O)C2=Cc1ccc[nH]1", "Potency": "inconclusive: 0.306 µM [activator, full curve, poor fit]"}, {"smiles": "COc1c(C(O)CC(C)C)ccc2c1C(=O)OCc1cc(C)cc(O)c1O2", "note": "(stereo not given)", "activation": "inactive: -2.68%"}, {"smiles": "COc1ccc2nc3n[nH]c(C)c3c(NCCOCCO)c2c1", "activation": "inactive: 6.21%"}, {"smiles": "CC(C)[C@@H](C)/C=C/[C@@H](C)[C@H]1CC[C@H]2C3=CC=C4C[C@@H](O)CC[C@]4(C)C3=CC[C@]12C", "Potency": "inconclusive: 21.3 µM [activator, single point]"}, {"smiles": "CN(C)CCOC(C)(c1ccccc1)c1ccccn1", "note": "(stereo not given)", "Potency": "inconclusive: 3.47 µM [activator, partial curve, poor fit]"}, {"smiles": "COC(=O)C1=C(C)NC(C)=C(C(=O)OC)C1c1cccc(NC(=O)NCCCN2CCC(c3cccc(OC)c3)CC2)c1", "Potency": "inconclusive: 21.3 µM [activator, single point] and active: 21.3 µM"}, {"smiles": "O=C(NO)c1ccccc1", "activation": "inconclusive: 35.1% [activator]"}, {"smiles": "Cc1ccc(C(=O)Nc2ccc(CN3CCN(C)CC3)c(C(F)(F)F)c2)cc1C#Cc1cnc2[nH]ncc2c1", "Potency": "inconclusive: 9.53 µM [activator, partial curve, poor fit]"}, {"smiles": "C/C=C/C=C/C=C/C(=O)O[C@@H]1C=C(CO)C(O)(C(=O)OC)[C@@]2(C)CCCC(C)(C)C12", "note": "(stereo not given in full)", "activation": "inactive: -10.7%"}, {"smiles": "NCCCCCC(=O)O", "Potency": "inconclusive: 8.49 µM [activator, single point]"}, {"smiles": "O=C(O)C1(C(=O)O)CCC1.[NH2-].[NH2-].[Pt+2]", "activation": "inactive: 0.565%"}, {"smiles": "Nc1nc2c(ncn2C2OC3COP(=O)(O)OC3C2O)c(=O)[nH]1", "note": "(stereo not given)", "Potency": "inconclusive: 0.301 µM [activator, full curve, poor fit]"}, {"smiles": "N#CC(=Cc1ccc(O)c(O)c1)C(=O)NCc1ccccc1", "Potency": "active: 34.3 µM"}, {"smiles": "CCOC(=O)N1CCC(Nc2ccc(Cl)cc2N)CC1", "Potency": "inconclusive: 17.4 µM [activator, single point]"}, {"smiles": "CC1=CC(=O)C2C(C)(C)CCC[C@]2(C)[C@H]1CC[C@H](C)CC(=O)O", "note": "(stereo not given in full)", "Potency": "inconclusive: 1.86 µM [activator, partial curve]"}, {"smiles": "O=c1ccc2ccc(OCCCCN3CCN(c4cccc5sccc45)CC3)cc2[nH]1", "Potency": "inconclusive: 23.9 µM [activator, single point]"}, {"smiles": "C=CC(C)(C)c1[nH]c2ccccc2c1C[C@@H]1NC(=O)[C@H](C)NC1=O", "Potency": "inconclusive: 0.294 µM [activator, partial curve, poor fit]"}, {"smiles": "CON(C)C(=O)N1N=C(c2cc(F)ccc2F)S[C@@]1(CCCN)c1ccccc1", "Potency": "inconclusive: 33.8 nM [activator, full curve] and inconclusive: 54.3 nM [activator, full curve, poor fit]"}, {"smiles": "C/C=C1\\[C@H](O[C@@H]2O[C@H](CO)[C@@H](O)[C@H](O)[C@H]2O)OC=C2C(=O)OCCc3ccc(O)c(c3)Oc3ccc(cc3)CCOC(=O)C[C@H]21", "Potency": "inconclusive: 0.5 µM [activator, full curve, poor fit]"}]}]}
